# Out of some 390,000 compounds screened, about 17,000 (4.4%) were called active. This list was built around the results that the source calls inconclusive (neither active nor inactive); the mix of calls is not that of the screen. The call rests on the fitted dose curve; in most records, active means well fitted inhibition curve with a large enough effect; inconclusive means small, poorly fitted or top-dose-only effect; inactive means no such curve, though single readings can be large or run the other way. Potencies of inconclusive entries are doubtful fits and often do not repeat.
# Target: Lysine-specific demethylase 4A (Homo sapiens) (UniProt O75164)
# UniProt O75164, sequence (O75164 whole entry, looked up, the tested form may be a part): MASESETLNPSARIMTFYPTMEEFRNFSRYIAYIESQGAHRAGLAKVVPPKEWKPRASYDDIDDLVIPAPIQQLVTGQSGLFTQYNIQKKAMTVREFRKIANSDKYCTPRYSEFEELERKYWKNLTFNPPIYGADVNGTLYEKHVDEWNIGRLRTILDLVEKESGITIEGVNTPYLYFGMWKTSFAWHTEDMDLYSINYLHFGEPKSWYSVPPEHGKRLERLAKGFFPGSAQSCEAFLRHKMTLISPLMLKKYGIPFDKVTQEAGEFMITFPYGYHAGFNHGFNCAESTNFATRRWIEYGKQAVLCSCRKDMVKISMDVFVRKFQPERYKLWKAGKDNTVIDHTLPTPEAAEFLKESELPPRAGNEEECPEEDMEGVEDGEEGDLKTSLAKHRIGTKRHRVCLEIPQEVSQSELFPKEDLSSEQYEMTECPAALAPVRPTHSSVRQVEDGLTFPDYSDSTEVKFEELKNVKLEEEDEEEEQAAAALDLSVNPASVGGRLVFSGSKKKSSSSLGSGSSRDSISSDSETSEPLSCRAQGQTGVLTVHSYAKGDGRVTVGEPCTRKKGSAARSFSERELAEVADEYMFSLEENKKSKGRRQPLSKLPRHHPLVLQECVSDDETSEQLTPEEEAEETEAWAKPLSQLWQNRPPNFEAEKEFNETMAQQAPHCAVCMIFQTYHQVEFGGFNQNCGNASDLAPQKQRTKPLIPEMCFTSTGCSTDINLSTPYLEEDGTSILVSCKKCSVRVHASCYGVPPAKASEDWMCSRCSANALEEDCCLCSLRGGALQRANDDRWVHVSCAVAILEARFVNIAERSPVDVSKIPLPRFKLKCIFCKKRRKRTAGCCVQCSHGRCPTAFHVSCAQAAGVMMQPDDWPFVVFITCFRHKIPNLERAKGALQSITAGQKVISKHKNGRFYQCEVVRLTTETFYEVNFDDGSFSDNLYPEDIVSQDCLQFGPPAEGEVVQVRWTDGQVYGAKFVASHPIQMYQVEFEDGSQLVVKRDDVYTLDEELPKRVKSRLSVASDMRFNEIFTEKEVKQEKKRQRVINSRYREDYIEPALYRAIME
# Experiment: qHTS Assay for Inhibitors of JMJD2A-Tudor Domain; further: nearly all actives have a fitted effect of over 50% in size
# Details: AlphaScreen JMJD2A-Tudor / H3K4me3 peptide binding; series mostly up to 114 µM
# Potency means the concentration at half of the fitted maximal effect; tags describe the fitted curve by direction and shape.
row,Structure (SMILES),Potency
1,CC(NCc1ccc2c(c1)OCO2)C(=O)NC1CCCCC1 (centres undefined),"inconclusive: 4.47 µM [inhibitor, full curve, poor fit]"
2,CCSc1ncc(/C=N/Nc2ccc(F)cc2)n1C,"inconclusive: 50.1 µM [inhibitor, partial curve]"
3,COc1ccc(/C(C)=N\Nc2nc(-c3ccccc3)cc(=O)[nH]2)cc1,"inconclusive: 39.8 µM [inhibitor, single point]"
4,COCCCNC(=O)/C(C#N)=C/c1ccc(OCC(=O)O)c(OC)c1,active: 50.1 µM
5,C=CCNC(=S)NNC(=O)COc1c(Cl)cc(Cl)cc1Cl,"inconclusive: 31.6 µM [inhibitor, single point]"
6,Cn1cc(/C=C2\SC(=O)NC2=S)c2ccccc21,"inconclusive: 8.91 µM [inhibitor, full curve]"
7,Cc1c(NC(=O)Nc2ccc([N+](=O)[O-])cc2)c(=O)n(-c2ccccc2)n1C,active: 15.8 µM
8,Cc1cc[n+](CC(=O)c2ccc(NC(=O)c3ccccc3)cc2)c2ccccc12,"inconclusive: 79.4 µM [inhibitor, single point]"
9,COc1ccccc1N(O)C1CC(=O)N(c2ccc(F)cc2)C1=O (centres undefined),"inconclusive: 56.2 µM [inhibitor, partial curve]"
10,O=C1CCc2cc(S(=O)(=O)Nc3cccc(Oc4ccccc4)c3)ccc2N1,inactive
11,O=c1c2oc3ccccc3c2n(Cc2ccccc2Cl)c(=O)n1Cc1ccco1,inactive
12,COc1ccc(CN(Cc2ccco2)c2cnc(S(C)(=O)=O)nc2C(=O)Nc2ccc(C)c(Cl)c2)cc1,"inconclusive: 100 µM [inhibitor, partial curve]"
13,CC(=O)c1cccc(NC(=O)c2ccccc2N(Cc2ccccc2)S(C)(=O)=O)c1,inactive
14,COc1cc(O)c(C(CCN2CCCCC2)c2ccc3c(c2)OCO3)c(OC)c1 (centres undefined),"inconclusive: 50.1 µM [inhibitor, partial curve]"
15,O=C(COC(=O)CCc1c[nH]c(=O)[nH]1)Nc1ccccc1Cl,"inconclusive: 63.1 µM [inhibitor, partial curve, poor fit]"
16,CCCN1C(=O)CC(c2ccco2)Sc2ccccc21 (centres undefined),"inconclusive: 63.1 µM [inhibitor, partial curve]"
17,O=C(NN1C(=O)/C(=C/c2cccnc2)SC1=S)C(c1ccccc1)c1ccccc1,"inconclusive: 20 µM [inhibitor, full curve, poor fit]"
18,CCOC(=O)N1CCN(C(=O)c2cccc(NS(=O)(=O)c3ccc(F)c(F)c3)c2)CC1,inactive
19,CCN(CC)S(=O)(=O)c1cccc(NC(=O)CN(C)Cc2cccc(OC)c2)c1,active: 1.58 µM

# From PubChem BioAssay AID504339 (National Center for Advancing Translational Sciences (NCATS), 2011)
